Assay results published in paper PMC4336329 (PLoS ONE, 2015).
In all, about 310,000 compounds went through this assay and about 2,200 (0.71%) showed an effect of 50% or more. The effect is printed as a negative number. This is one part of the list.

Target: human ether-à-go-go-related gene (hERG) potassium channel (human, UniProt Q12809)
Assay: primary screen, population patch clamp on CHO cells stably expressing hERG

Sequence of human ether-à-go-go-related gene (hERG) potassium channel (Q12809 whole entry, looked up): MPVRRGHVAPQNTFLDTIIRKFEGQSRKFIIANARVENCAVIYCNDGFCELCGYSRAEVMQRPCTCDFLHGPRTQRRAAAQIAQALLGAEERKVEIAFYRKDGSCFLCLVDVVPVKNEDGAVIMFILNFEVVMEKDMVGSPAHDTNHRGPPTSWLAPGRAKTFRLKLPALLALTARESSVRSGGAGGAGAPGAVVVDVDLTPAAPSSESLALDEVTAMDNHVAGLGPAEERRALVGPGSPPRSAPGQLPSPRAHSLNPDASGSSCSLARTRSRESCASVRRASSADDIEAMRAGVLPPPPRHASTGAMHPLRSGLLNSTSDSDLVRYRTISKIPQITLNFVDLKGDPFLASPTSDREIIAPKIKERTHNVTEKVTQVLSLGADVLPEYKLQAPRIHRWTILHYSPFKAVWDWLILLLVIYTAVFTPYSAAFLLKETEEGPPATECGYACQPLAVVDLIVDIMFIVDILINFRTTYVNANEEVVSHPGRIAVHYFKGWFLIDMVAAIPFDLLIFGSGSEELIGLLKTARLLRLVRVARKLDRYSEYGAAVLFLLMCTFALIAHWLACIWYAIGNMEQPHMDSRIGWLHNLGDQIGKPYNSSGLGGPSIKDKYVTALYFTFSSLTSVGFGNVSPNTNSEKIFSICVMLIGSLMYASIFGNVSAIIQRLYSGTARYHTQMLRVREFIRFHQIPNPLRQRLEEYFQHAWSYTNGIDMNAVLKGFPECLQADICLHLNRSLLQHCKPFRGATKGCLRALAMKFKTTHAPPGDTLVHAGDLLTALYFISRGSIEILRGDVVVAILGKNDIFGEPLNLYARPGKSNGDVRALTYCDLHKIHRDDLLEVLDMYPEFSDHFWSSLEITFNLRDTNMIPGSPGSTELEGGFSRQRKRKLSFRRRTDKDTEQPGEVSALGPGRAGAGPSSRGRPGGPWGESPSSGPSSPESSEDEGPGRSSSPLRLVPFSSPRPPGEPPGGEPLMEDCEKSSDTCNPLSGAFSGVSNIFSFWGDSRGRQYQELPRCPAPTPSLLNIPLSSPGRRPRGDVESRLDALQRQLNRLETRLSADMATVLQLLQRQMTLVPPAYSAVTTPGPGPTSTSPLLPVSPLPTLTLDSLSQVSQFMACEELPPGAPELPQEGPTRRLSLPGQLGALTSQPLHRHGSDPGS

Row | Structure (SMILES) | hERG current change (%, negative = inhibition) at 1uM [%]
1 | CSc1ccccc1C(=O)Nc1ccc2c(c1)OCCO2 | 7.17
2 | CN(CCOc1cccc(C(F)(F)F)c1)Cc1ccccc1.O=C(O)C(=O)O | 14.8
3 | COc1cccc(NC(=O)NCc2c(-c3ccccc3)noc2C)c1 | -1.96
4 | O=C(CN1CCN(C/C=C/c2ccccc2)CC1)Nc1ccccc1C(=O)NC1CC1 | -88.8
5 | O=C(Nc1nccs1)c1cccc(N2C(=O)C3C4C=CC(C4)C3C2=O)c1 (centres unmarked) | -13.2
6 | COc1ccc(CCNC(=O)C2CCC(=O)N(CCc3ccc(OC)cc3)C2)cc1 (centres unmarked) | 33.9
7 | COc1cc(C2NC(=O)NC(c3ccccc3)=C2C(C)=O)cc([N+](=O)[O-])c1O (centres unmarked) | 10.5
8 | O=C(O)c1ccc2c(=O)n3c(nc2c1)/C(=C/c1ccc(Cl)c([N+](=O)[O-])c1)CC3 | 14.2
9 | COc1cc(CC(=O)Nc2ncc(C)s2)cc(OC)c1OC | 16.8
10 | CCOC(=O)c1cc2c(ccn2C)n1CC(=O)N1CCN(c2ccccc2)CC1 | 1.85
11 | CC(C)CN(CC(C)C)C(=O)COc1ccccc1C(N)=O | 9.29
12 | COc1ccc(CNS(=O)(=O)NCc2ccccc2F)cc1 | 13.8
13 | Cc1c(Br)c([N+](=O)[O-])nn1C(C)C(=O)NCC1CCCO1 (centres unmarked) | -9.96
14 | COc1ccc(OC)c(C2NC(=O)NC(C)=C2C(=O)Nc2ccc(C)cc2)c1 (centres unmarked) | -5.03
15 | CCOc1ccc(C(CCc2ccccc2)NC(=O)c2ccccc2)cc1OCC (centres unmarked) | 2.85
16 | CCCOC(=O)CN1C(=O)c2ccccc2C1=O | 8.69
17 | O=[N+]([O-])c1cc(C(F)(F)F)ccc1NC1CCN(Cc2ccccc2)C1 (centres unmarked) | -1.39
18 | O=C(NNC(=O)C1CCCN(S(=O)(=O)c2cccc(F)c2)C1)C1CC1 (centres unmarked) | 39.6
19 | C=CCSc1ncccc1C(=O)NCCc1ccc(Cl)cc1 | 14.5

Row | Structure (SMILES) | hERG current change (%, negative = inhibition) at 1uM [%]
20 | COc1ccc(N2C(=O)/C(=C/c3ccco3)C(=O)NC2=S)cc1 | 6.72
21 | C=CCC(Nc1ccccc1)c1ccc(OC)c(OC)c1 (centres unmarked) | 9.7
22 | COc1cc(/C=N/n2c(C)nc3ccccc3c2=O)cc(OC)c1O | 14
23 | NNC(=O)CNC(c1ccccc1)c1cc(Cl)ccc1NC(=O)c1ccccc1 (centres unmarked) | 16.8
24 | COc1cc2sc(C)nc2cc1C | 18.5
25 | CC1CCCC(NC(=O)COC(=O)[C@@H]2CC(O)CN2S(=O)(=O)c2ccc3c(c2)OCCO3)C1C (some centres unmarked) | 7.99
26 | O=S(=O)(c1ccc(NCc2ccccc2)cc1)N1CCOCC1 | 20.8
27 | CC(C)CC(=O)Nc1c(C(=O)N2CCN(Cc3ccccc3)CC2)oc2ccccc12 | 7.06
28 | Cc1cc(C)c(C#N)c(SCCN2CCCCC2)n1 | 6.95
29 | COc1cccc(N2C(=NC(=O)CCC3CCCC3)SC3CS(=O)(=O)CC32)c1 (centres unmarked) | 8.16
30 | COc1ccc(S(=O)(=O)N2CCOCC2)cc1NC(=O)CSc1ncnc2ccccc12 | 15.7
31 | O=C(CNS(=O)(=O)c1ccc(Br)s1)NCCc1ccc(Cl)cc1 | 16.1
32 | O=C1/C(=C/c2cccc3ccccc23)CCCc2ccccc21 | 17.6
33 | CN(C)C(=O)CSc1nc(-c2cccs2)c(-c2cccs2)[nH]1 | 9.02
34 | CCC(C)N(C(=O)c1csnn1)C(C(=O)NC1CCCC1)c1ccccc1F (centres unmarked) | 2.84
35 | COc1ccc(S(=O)(=O)N2CCCCC2)cc1NC(=O)C1CC(=O)N(Cc2ccccc2)C1 (centres unmarked) | 5.03
36 | CCN1CCCC1Cn1cnc2c([nH]c3ccc(Cl)cc32)c1=O (centres unmarked) | -69.4
37 | CCS(=O)(=O)N1CCN(S(=O)(=O)c2ccc(S(=O)(=O)NC3CC3)cc2)CC1 | 10.9
38 | O=C(COC(=O)c1ccc2ncsc2c1)NCc1ccc(F)cc1 | 4.82

Row | Structure (SMILES) | hERG current change (%, negative = inhibition) at 1uM [%]
39 | CN1C(C(=O)NCc2cccc(Br)c2)CC2Cn3c(nc4ccccc43)C21 (centres unmarked) | -25.7
40 | CC(C)C(NC(=O)c1ccco1)C(=O)OCC(=O)Nc1ccc(C(N)=O)cc1 (centres unmarked) | 12.9
41 | C=CCn1c(SCCOc2ccccc2)nnc1C(C)NC(=O)c1ccccc1 (centres unmarked) | 12.9
42 | Cc1ccc(S(=O)(=O)N2CCC(=O)N(CCOC(=O)Nc3ccc(C)c(C)c3)CC2)cc1 | -7.3
43 | COc1ccc(C(C)C)cc1S(=O)(=O)NCCCn1ccnc1 | 11.2
44 | Cc1ccccc1NS(=O)(=O)c1ccc2oc(=O)ccc2c1 | 15.4
45 | O=C(COc1ccc2c3c(c(=O)oc2c1)CCC3)N[C@@H](CSCc1ccccc1)C(=O)O | 8.31
46 | CCOC(=O)c1ccc(NC(=O)COc2coc(CN3CCc4ccccc43)cc2=O)cc1 | 8.2
47 | CC(=O)Nc1ccc(S(=O)(=O)NC2=NCN(c3ccc([N+](=O)[O-])cc3)CN2)cc1 | 17.9
48 | COc1ccc(C(=O)Nn2c(C)nc3ccccc3c2=O)c(OC)c1 | 8.7
49 | COc1cc(C(=O)Nc2cccc(-n3cnnn3)c2)cc(Cl)c1OC | 3.78
50 | [O-][n+]1c2c(nc3c1-c1ccccc1C3O)CCCC2 (centres unmarked) | 11.4
51 | CCc1ccc(/C(C)=N\Nc2ccc([N+](=O)[O-])cc2)cc1 | 6.85
52 | COCCOCCn1cnc2ccccc21 | 17.7
53 | Nn1c(COc2ccc(Cl)cc2)nc2ccccc2c1=O | 1.71
54 | COc1ccc(/C=C2/C(=N)N3N=C(CC(=O)N4CCCC4)SC3=NC2=O)cc1OC | 9.9
55 | CC(=O)Oc1ccc(C(=O)Nc2cccc(-c3nnc(-c4ccco4)o3)c2)cc1 | 4.65
56 | O=c1c2ccccc2nc2ccc(NCc3cccs3)nn12 | 9.37
